# Measurements from the supplement of paper PMC8728848.
# This is one part of the list.
# Legend:
# Experiment in all cases: glycan array binding signal (z-score within array); higher = stronger binding
# Conditions in all cases: glycan notation: IUPAC condensed, linker removed
# [1] = biological target: Man(a1-2)Man(a1-3)[Man(a1-2)Man(a1-6)]Man(a1-6)[Man(a1-2)Man(a1-2)Man(a1-3)]Man
# Outline: (§1)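 The binding signal is a Z-score computed within each array and averaged over linkers. Arrays of the same protein sequence at different concentrations or buffers were also averaged together. Data originate from 3228 arrays in the Consortium for Functional Glycomics database, kept only where the protein sequence was available.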
# [2] = biological target: Man(a1-2)Man(a1-3)[Man(a1-2)Man(a1-6)]Man(a1-6)[Man(a1-2)Man(a1-2)Man(a1-3)]Man(b1-4)GlcNAc(b1-4)GlcNAc
# Outline: as §1
# [3] = biological target: Man(a1-2)Man(a1-3)[Man(a1-6)]Man(a1-6)[Man(a1-2)Man(a1-3)]Man(b1-4)GlcNAc(b1-4)GlcNAc
# Outline: as §1
# [4] = biological target: Man(a1-2)Man(a1-6)[Man(a1-3)]Man(a1-6)[Man(a1-2)Man(a1-2)Man(a1-3)]Man
# Outline: as §1
# [5] = biological target: Man(a1-2)Man(a1-6)[Man(a1-3)]Man(a1-6)[Man(a1-2)Man(a1-2)Man(a1-3)]Man(b1-4)GlcNAc(b1-4)GlcNAc
# Outline: as §1
# [6] = biological target: Man(a1-3)[Man(a1-6)]Man
# Outline: as §1
# [7] = biological target: Man(a1-3)[Man(a1-6)]Man(a1-6)[Man(a1-2)Man(a1-3)]Man(b1-4)GlcNAc(b1-4)GlcNAc
# Outline: as §1
# [8] = biological target: Man(a1-3)[Man(a1-6)]Man(a1-6)[Man(a1-3)]Man
# Outline: as §1
# [9] = biological target: Man(a1-3)[Man(a1-6)]Man(a1-6)[Man(a1-3)]Man(b1-4)GlcNAc(b1-4)GlcNAc
# Outline: as §1
# [10] = biological target: Man(a1-3)[Man(a1-6)]Man(b1-4)GlcNAc(b1-4)GlcNAc
# Outline: as §1
# [11] = biological target: Man(a1-3)[Man(a1-6)]Man(b1-4)GlcNAc(b1-4)[Fuc(a1-6)]GlcNAc
# Outline: as §1
# [12] = biological target: Man(a1-6)Man
# Outline: as §1
# [13] = biological target: Man(b1-4)GlcNAc
# Outline: as §1
# [14] = biological target: MurNAc(b1-4)GlcNAc
# Outline: as §1
# [15] = biological target: Neu5Ac(a2-3)Gal
# Outline: as §1
# [16] = biological target: Neu5Ac(a2-3)Gal(b1-3)GalNAc
# Outline: as §1
# [17] = biological target: Neu5Ac(a2-3)Gal(b1-3)GalNAc(b1-3)Gal(a1-4)Gal(b1-4)Glc
# Outline: as §1
# [18] = biological target: Neu5Ac(a2-3)Gal(b1-3)GalNAc(b1-4)Gal(b1-4)Glc
# Outline: as §1
# [19] = biological target: Neu5Ac(a2-3)Gal(b1-3)GalNAc(b1-4)[Neu5Ac(a2-3)]Gal(b1-4)Glc
# Outline: as §1
# [20] = biological target: Neu5Ac(a2-3)Gal(b1-3)GalNAc(b1-4)[Neu5Ac(a2-8)Neu5Ac(a2-3)]Gal(b1-4)Glc
# Outline: as §1
# [21] = biological target: Neu5Ac(a2-3)Gal(b1-3)GalNAc6S
# Outline: as §1
# [22] = biological target: Neu5Ac(a2-3)Gal(b1-3)GlcNAc
# Outline: as §1
# [23] = biological target: Neu5Ac(a2-3)Gal(b1-3)GlcNAc(b1-2)Man
# Outline: as §1
# [24] = biological target: Neu5Ac(a2-3)Gal(b1-3)GlcNAc(b1-2)Man(a1-3)[GlcNAc(b1-4)][Neu5Ac(a2-3)Gal(b1-3)GlcNAc(b1-2)Man(a1-6)]Man(b1-4)GlcNAc(b1-4)GlcNAc
# Outline: as §1
# [25] = biological target: Neu5Ac(a2-3)Gal(b1-3)GlcNAc(b1-2)Man(a1-3)[Neu5Ac(a2-3)Gal(b1-3)GlcNAc(b1-2)Man(a1-6)]Man(b1-4)GlcNAc(b1-4)GlcNAc
# Outline: as §1
# [26] = biological target: Neu5Ac(a2-3)Gal(b1-3)GlcNAc(b1-2)[Neu5Ac(a2-3)Gal(b1-3)GlcNAc(b1-4)]Man(a1-6)[Neu5Ac(a2-3)Gal(b1-3)GlcNAc(b1-2)Man(a1-3)]Man(b1-4)GlcNAc(b1-4)GlcNAc
# Outline: as §1
# [27] = biological target: Neu5Ac(a2-3)Gal(b1-3)GlcNAc(b1-3)Gal(b1-3)GlcNAc
# Outline: as §1
# [28] = biological target: Neu5Ac(a2-3)Gal(b1-3)GlcNAc(b1-3)Gal(b1-4)GlcNAc
# Outline: as §1
# [29] = biological target: Neu5Ac(a2-3)Gal(b1-3)GlcNAc(b1-3)GalNAc
# Outline: as §1
# [30] = biological target: Neu5Ac(a2-3)Gal(b1-3)GlcNAc(b1-6)GalNAc
# Outline: as §1
# [31] = biological target: Neu5Ac(a2-3)Gal(b1-3)GlcNAc6S
# Outline: as §1
# [32] = biological target: Neu5Ac(a2-3)Gal(b1-3)[Fuc(a1-4)]GlcNAc
# Outline: as §1
# [33] = biological target: Neu5Ac(a2-3)Gal(b1-3)[Fuc(a1-4)]GlcNAc(b1-3)Gal(b1-3)[Fuc(a1-4)]GlcNAc
# Outline: as §1
# [34] = biological target: Neu5Ac(a2-3)Gal(b1-3)[Fuc(a1-4)]GlcNAc(b1-3)Gal(b1-4)[Fuc(a1-3)]GlcNAc
# Outline: as §1
# [35] = biological target: Neu5Ac(a2-3)Gal(b1-3)[GlcNAc(b1-6)]GalNAc
# Outline: as §1
# [36] = biological target: Neu5Ac(a2-3)Gal(b1-3)[Neu5Ac(a2-6)]GalNAc
# Outline: as §1
# [37] = biological target: Neu5Ac(a2-3)Gal(b1-3)[Neu5Ac(a2-6)]GlcNAc(b1-3)[Fuc(a1-3)[Gal(b1-4)]GlcNAc(b1-6)]Gal(b1-4)Glc
# Outline: as §1
# [38] = biological target: Neu5Ac(a2-3)Gal(b1-3)]Neu5Ac(a2-3)Gal(b1-4)]GlcNAc
# Outline: as §1
# [39] = biological target: Neu5Ac(a2-3)Gal(b1-4)Glc
# Outline: as §1
# [40] = biological target: Neu5Ac(a2-3)Gal(b1-4)GlcNAc
# Outline: as §1
# [41] = biological target: Neu5Ac(a2-3)Gal(b1-4)GlcNAc(b1-2)Man
# Outline: as §1
# [42] = biological target: Neu5Ac(a2-3)Gal(b1-4)GlcNAc(b1-2)Man(a1-3)[GlcNAc(b1-4)][Neu5Ac(a2-3)Gal(b1-4)GlcNAc(b1-2)Man(a1-6)]Man(b1-4)GlcNAc(b1-4)GlcNAc
# Outline: as §1
# [43] = biological target: Neu5Ac(a2-3)Gal(b1-4)GlcNAc(b1-2)Man(a1-3)[Neu5Ac(a2-3)Gal(b1-4)GlcNAc(b1-2)Man(a1-6)]Man(b1-4)GlcNAc(b1-4)GlcNAc
# Outline: as §1
# [44] = biological target: Neu5Ac(a2-3)Gal(b1-4)GlcNAc(b1-2)Man(a1-3)[Neu5Ac(a2-3)Gal(b1-4)GlcNAc(b1-2)Man(a1-6)]Man(b1-4)GlcNAc(b1-4)[Fuc(a1-6)]GlcNAc
# Outline: as §1
# [45] = biological target: Neu5Ac(a2-3)Gal(b1-4)GlcNAc(b1-2)Man(a1-3)[Neu5Ac(a2-6)Gal(b1-4)GlcNAc(b1-2)Man(a1-6)]Man(b1-4)GlcNAc(b1-4)GlcNAc
# Outline: as §1
binder,measurement,setting,value
Epa10 (protein) MNEKIFRYLTLLFLFELARSLPVEDKLNIKKVFEKRAVDFTPFAHYPRPEGCSSPPNSVSVGLHMNLYNYPYLYVKPSTKGMFTNDTNSDADGETDGDSAGGIEGRAGQCWNPEYQDPNFPRFGYKQYGEFGASDNVNGDISWDHNEFTEGCKPVLAALPPGYNYPDEITFSNFTMVLSGYFKPKTSGVYKFELKADDFILFNFGAKNAFECCNREESIDNFGPYVAYAMWPNQADQELEVYLFEDSYYPLRLFYNNRDYHSKFKIGFYPPGQTTITFDFDGYLFMLDDTGNECRDSIRYRTVCDDKVVDDTTYSTRYSTSMVPGGGSDVITIYYIRMKCEEEDCLGQWDPINNVCYSPDDCADDGGYWNGQMCDQSCKLEGGIVNPDTGDCDKSCIESGGFLDENGNCDTTCRDDGGMLVEGQCDYQCKEAGGILVGDHCDTTCVDSGGKLNEDGTCDHSCRDQGGQLDENGECDTSCKDSGGMLIEGECDTSCKDEGGQLDDNNECINHCKDQGGIIDENGNCDTSCKDSGGKLDESGACDTSCRDDGGIIDENGNCNTTCRDDGGIIVGDHCDTSCRDAGGILIEDHCDTTCRDSGGKLNEDGTCDHSCRDQGGQLDENGKCDYSCKNGGGKLDEDGNCDMSCKENGGKLDENGDCDLSCKEDGGKLDGNGDCDYSCKEEGGVIDESGNCNTTCKDSGGQIIDGECNYGCIEVGGVVIDGECDTSCIDSGGILDGDGNCDRSCIESGGVLEDGACNTTCRDSGGQLNVDGTCDTSCRDDGGMLVEGQCDYQCKEAGGILEDGECVFPPTSSSTSETSSTTDQSSLQSDDSSMESSSTPMDSSTIESSSSEIITSESESESVPIASSSSEVMTSESESESIPILTSSSEIPIASSSSEIPVASSSSEIIIPESESESVPVASSSSEIPIASSSSEIPVASSSSEIPVASSSSEIIIPESESESIPIESTSSEAVSSRSESDSSYPTPTPTTTTITTWPNPIQPTTSNSSPIVSSSTETPGIAESSSRISDLESSRRTSILGDDRTRTRTTITSTITEDGQIITITTTVTGFVPEPTGETEGNGSDDENPENPIENNTDENEFLDPEFTDDIPDDPAGPEDNGNGPVNPEQGNDNDPVNLEDSGNNGAVNPEQAPVNDEDNGGNDPVNPEQDNNNGPANPGQDSTNGSGNSDQIDNNPPTPEENAGDGNSNGNDPADPSRRTSILGDERTRASPGGTSQPTGANGNVNGNSPGANVNGGGTGNSNNNNNNNNNNNNGNAPNGGDGSNGDANQGPSRRTSLLGDERTRAGQAAPTGGSSPDNGIAGDTSNNGGAIVSQQVDDGGAGSPRRTSILGDVRSRTTLNGEVLNFEGSGVRRAVAGNLALPLMMVGLVFNL,glycan array binding signal (z-score),[1],-0.315
same,glycan array binding signal (z-score),[2],-0.187
same,glycan array binding signal (z-score),[3],-0.255
same,glycan array binding signal (z-score),[4],-0.299
same,glycan array binding signal (z-score),[5],-0.239
same,glycan array binding signal (z-score),[6],-0.194
same,glycan array binding signal (z-score),[7],-0.247
same,glycan array binding signal (z-score),[8],-0.262
same,glycan array binding signal (z-score),[9],-0.168
same,glycan array binding signal (z-score),[10],-0.224
same,glycan array binding signal (z-score),[11],-0.132
same,glycan array binding signal (z-score),[12],-0.104
same,glycan array binding signal (z-score),[13],-0.281
same,glycan array binding signal (z-score),[14],-0.283
same,glycan array binding signal (z-score),[15],-0.27
same,glycan array binding signal (z-score),[16],-0.305
same,glycan array binding signal (z-score),[17],-0.179
same,glycan array binding signal (z-score),[18],-0.263
same,glycan array binding signal (z-score),[19],-0.243
same,glycan array binding signal (z-score),[20],-0.206
same,glycan array binding signal (z-score),[21],-0.172
same,glycan array binding signal (z-score),[22],-0.234
same,glycan array binding signal (z-score),[23],-0.262
same,glycan array binding signal (z-score),[24],-0.241
same,glycan array binding signal (z-score),[25],-0.142
same,glycan array binding signal (z-score),[26],-0.136
same,glycan array binding signal (z-score),[27],-0.253
same,glycan array binding signal (z-score),[28],-0.213
same,glycan array binding signal (z-score),[29],-0.196
same,glycan array binding signal (z-score),[30],-0.289
same,glycan array binding signal (z-score),[31],-0.232
same,glycan array binding signal (z-score),[32],-0.218
same,glycan array binding signal (z-score),[33],-0.188
same,glycan array binding signal (z-score),[34],-0.247
same,glycan array binding signal (z-score),[35],-0.193
same,glycan array binding signal (z-score),[36],-0.007
same,glycan array binding signal (z-score),[37],-0.237
same,glycan array binding signal (z-score),[38],-0.265
same,glycan array binding signal (z-score),[39],-0.269
same,glycan array binding signal (z-score),[40],-0.23
same,glycan array binding signal (z-score),[41],-0.049
same,glycan array binding signal (z-score),[42],-0.239
same,glycan array binding signal (z-score),[43],-0.253
same,glycan array binding signal (z-score),[44],-0.247
same,glycan array binding signal (z-score),[45],-0.195
